Laboratory results: PubChem BioAssay AID1030 (National Center for Advancing Translational Sciences (NCATS), 2008)
Hit rate of the full screen: of about 220,000 compounds, about 16,000 (7.3%) were called active. Inconclusive results, whose numbers are uncertain, are shown with a selection of clear calls. Calls come from the whole dose curve; as a rule, active = well fitted inhibition curve with a large enough effect (not every such curve was filed as active); inconclusive = small, poorly fitted or top-dose-only effect, or another doubt; inactive = no such curve, though single readings can be large or run the other way. Potencies of inconclusive entries are doubtful fits and often do not repeat.

Biological target: Aldehyde dehydrogenase 1A1 (Homo sapiens) (UniProt P00352)
Assay: qHTS Assay for Inhibitors of Aldehyde Dehydrogenase 1 (ALDH1A1);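 for activity, negative = inhibition: plate controls were no enzyme wells and a reference inhibitor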
Details: Purified ALDH1A1, NADH fluorescence, propionaldehyde substrate; series mostly up to 75.3 µM; activity, negative = inhibition: at the top concentration
Potency is the fitted concentration of half-maximal effect; tags give direction and shape of the fitted curve.

Sequence of UniProt P00352 (P00352 whole entry, looked up): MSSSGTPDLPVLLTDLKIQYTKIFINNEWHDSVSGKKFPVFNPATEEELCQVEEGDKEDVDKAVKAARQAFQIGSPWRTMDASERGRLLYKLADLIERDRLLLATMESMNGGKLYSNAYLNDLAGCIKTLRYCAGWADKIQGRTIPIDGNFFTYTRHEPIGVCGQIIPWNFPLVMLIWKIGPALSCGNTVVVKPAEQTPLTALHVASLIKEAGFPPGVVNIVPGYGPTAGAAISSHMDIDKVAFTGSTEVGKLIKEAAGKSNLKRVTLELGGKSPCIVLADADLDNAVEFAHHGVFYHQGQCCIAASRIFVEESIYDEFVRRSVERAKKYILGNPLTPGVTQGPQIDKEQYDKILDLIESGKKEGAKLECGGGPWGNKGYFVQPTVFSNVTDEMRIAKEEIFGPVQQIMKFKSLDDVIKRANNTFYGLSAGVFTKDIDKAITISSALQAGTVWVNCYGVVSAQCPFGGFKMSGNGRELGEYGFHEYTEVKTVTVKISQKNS

Potency, inconclusive:
COc1ccccc1N1CCN(C(=O)CSc2ncnc3scc(-c4ccccc4)c23)CC1 18.9 µM [inhibitor, single point], O=C(Nc1ccc(Cl)cc1)c1ccc(-n2cccn2)c([N+](=O)[O-])c1 44.7 µM [inhibitor, single point], CN1C(c2ccc(F)cc2)=CS/C1=C(\C#N)c1nnc2n1-c1ccccc1SC2 15.8 µM [inhibitor, partial curve], COc1ccc(-c2cn3cc(C)ccc3n2)cc1Br 35.5 µM [inhibitor, single point], Cc1ccc(NC(=O)COC(=O)C2CSC3(C)CCC(=O)N23)cc1S(=O)(=O)N1CCOCC1 (stereo not drawn) 39.8 µM [inhibitor, single point], CCOC(=O)C1=C(O)/C(=C/c2ccc(OCC(=O)O)c(OC)c2)SC1=Nc1ccc(OCC)cc1 22.4 µM [inhibitor, single point], CCNc1ncc2nc(-c3ccc(Cl)cc3)c(=O)n(C)c2n1 25.1 µM [inhibitor, partial curve], COc1ccc(CCNC(=O)CC2Nc3cc(C)c(C)cc3NC2=O)cc1OC (stereo not drawn) 25.1 µM [inhibitor, partial curve], CC(=O)C1=C(c2ccccc2)N(C(C)=O)n2c(C)nnc2S1 35.5 µM [inhibitor, single point], CNNCc1ccc(C(=O)NC(C)C)cc1 17.8 µM [inhibitor, single point], Cc1ccc(-n2ncc3c(SCc4ccccc4)ncnc32)cc1 39.8 µM [inhibitor, single point], COc1cccc(NC(=O)/C=C/c2ccccc2[N+](=O)[O-])c1 31.6 µM [inhibitor, single point], Nc1ccc(CN2CCCCCC2)cc1 15.8 µM [inhibitor, partial curve], CC(=O)NC(Cc1ccc(C)cc1)C(=O)NC1CCN(c2ncccc2[N+](=O)[O-])CC1 (stereo not drawn) 39.8 µM [inhibitor, single point], CCOC(=O)/C(=C/C=C1\Sc2cc(C)c(C)cc2N1CC)C(C)=O 39.8 µM [inhibitor, single point], O=C(O)c1cc2ccc3ccccc3c2oc1=O 28.2 µM [inhibitor, partial curve], COC(=O)CSc1nnnn1-c1cccc2ccccc12 25.1 µM [inhibitor, single point], Fc1cc(F)c2nc(Nc3nc4c(F)cccc4s3)sc2c1 31.6 µM [inhibitor, partial curve], Fc1ccc(C2C3=C(Nc4ncnn42)c2ccccc2OC3c2ccncc2)cc1 (stereo not drawn) 39.8 µM [inhibitor, single point], CN1CCc2c(C#N)c(N3CCCCC3)nc(NCc3ccccc3)c2C1 22.4 µM [inhibitor, partial curve], COc1ccc(/C=C2\SC(=O)N(CCNC(=O)Cc3coc4cc(C)ccc34)C2=O)cc1OC 12.6 µM [inhibitor, partial curve], O=C(CSc1ccccn1)N1CCN(c2ccc(Cl)cc2)CC1 28.2 µM [inhibitor, single point], O=C1C2C3C=CC(CC3)C2C(=O)N1/N=C/c1ccc(O)cc1 (stereo not drawn) 22.4 µM [inhibitor, partial curve], CNc1ncnc2sc(-c3ccccc3)cc12 39.8 µM [inhibitor, partial curve], Cc1c(-c2c(C#N)c(N)nc3c2CCCCCC3)cnn1C 28.2 µM [inhibitor, partial curve], CCOC(=O)N1CCC(NC(=O)Cn2cc3c(n2)CCCCC3)CC1 39.8 µM [inhibitor, single point], CCOc1cccc(C2c3c(oc4cc(C)c(C)cc4c3=O)C(=O)N2CCCN(C)C)c1 (stereo not drawn) 15.8 µM [inhibitor, partial curve], CCCN1c2cccc3cccc(c23)S1(=O)=O 39.8 µM [inhibitor, single point], O=C(Cn1c(CO)nc2ccccc21)NCCc1ccccc1 5.01 µM [inhibitor, single point], O=C(c1ccc2c(c1)N(Cc1ccc(F)cc1)C(=O)CS2)N1CCOCC1 22.4 µM [inhibitor, single point], COc1ccc(C(F)(F)F)cc1N/C=C\c1nnnn1-c1ccccc1 8.91 µM [inhibitor, partial curve], CCOC(=O)CCCCC(=O)c1[nH]c(=O)[nH]c1Cn1ccnc1 39.8 µM [inhibitor, single point], Cc1oc(-c2ccccc2)cc1C(=O)Nc1cccc(/C=C\C(=O)O)c1 39.8 µM [inhibitor, single point], Nc1ccccc1C#CCCCCO 44.7 µM [inhibitor, single point], CCc1nc2scc(-c3ccccc3)c2c(=O)n1N 35.5 µM [inhibitor, single point], O=C(CN1CCN(S(=O)(=O)c2ccc(F)cc2)CC1)Nc1ccccc1F 31.6 µM [inhibitor, single point], Cc1ccccc1-c1ccc(C(=O)Nc2cccc(F)c2)o1 39.8 µM [inhibitor, single point], Cn1cccc1C(C#N)c1ccccc1C#N (stereo not drawn) 22.4 µM [inhibitor, single point], COc1ccc(CN(C2CCCC2)S(=O)(=O)c2ccc(-n3cnnn3)c(OC)c2)cc1OC 28.2 µM [inhibitor, single point], Cc1c(-c2cccc(NC(=O)c3ccco3)c2)nc2ncccn12 35.5 µM [inhibitor, partial curve], COc1ccccc1CN1CC[C@@]2(CCCN(C(=O)c3cccc(F)c3)C2)C1 44.7 µM [inhibitor, single point]

Potency, inactive:
O=c1[nH]c(=O)n([C@H]2C[C@H](O)[C@@H](CO)O2)cc1F

Potency, active:
Cc1sc(NC(=O)CCl)c(C(=O)c2ccccc2)c1C 0.708 µM, COC(=O)c1cc(=O)n(Cc2ccc3c(c2)OCO3)c(=Nc2ccccc2)s1 0.631 µM, Cc1ccc(S(=O)(=O)CC(=O)c2cc(C)c(O)c(C)c2)cc1 1.78 µM, CC(C)CC(NC(=O)OCC1c2ccccc2-c2ccccc21)C(=O)O (stereo not drawn) 8.91 µM, Cc1ccc(S(=O)(=O)N(C)Cc2ccc(C(=O)NN=C3C4CC5CC(C4)CC3C5)cc2)cc1 0.501 µM, Nc1nc2ccccc2[nH]1 20 µM, O=C1NC(=S)S/C1=C\c1coc2ccccc2c1=O 8.91 µM, O=C(CCCNS(=O)(=O)c1cccc2nsnc12)NCc1ccccc1 5.01 µM, COc1ccccc1N1CCN(C(CNS(=O)(=O)c2ccccc2)c2cccnc2)CC1 (stereo not drawn) 20 µM, CCN1CCC2(CC1)N=C(c1ccc(F)cc1)C(=S)N2C(=O)c1ccc(C(C)(C)C)cc1 28.2 µM, Cc1cccc(N2C(=O)SC(SC(=Nc3ccccc3)Nc3ccccc3)C2=O)c1 (stereo not drawn) 15.8 µM, O=c1c2c(-c3ccc([N+](=O)[O-])cc3)csc2nc2n1CCC2 7.08 µM

activity, negative = inhibition, inactive:
COC(=O)c1cc2oc(C)cc2n1CC(=O)Nc1cc(C)cc(C)c1 -13.8%, O=C(Oc1ccccc1)N1CCC2(CCCN(c3ccncc3)C2)CC1 -7.64%, Brc1nc(Br)n(Cc2ccccc2)n1 8.03%, COc1cccc(Nc2ncc3nc(-c4ccc(F)cc4)c(=O)n(C[C@H]4CCCO4)c3n2)c1 -11.9%, CN(C)S(=O)(=O)N1CCCC(C(=O)c2ccc(C(F)(F)F)cc2)C1 (stereo not drawn) 1.25%, O=S(=O)(c1ccc(N2CCOCC2)nc1)N(Cc1ccccn1)Cc1ccccn1 -1.37%, CCOC(=O)c1sc2ncnc(N3CCN(CC)CC3)c2c1C -6.41%, Cc1ccc(NC(=O)CSc2nccn2Cc2ccccc2)cc1C -2.06%, COc1ccc(C(=S)Nc2ccccc2)cc1 -3.12%, COCC(=O)Nc1nnc(SCC(=O)NCc2cccs2)s1 0.498%, CCOc1cc(/C=N/NC(=O)c2cccnc2)ccc1OCC(=O)N(C)C 2.31%, CC(=O)OCCNc1cc(N2CCN(C)CC2)c2noc3c2c1C(=O)c1ccccc1-3 -2.6%, CC1(C)NC(=O)N(CC(=O)O)C1=O 4.44%, CC(=O)c1ccc(NC(=O)N2CCN(c3cccc(Cl)c3)CC2)cc1 5.5%, COc1ccc(C2CC3(CC(C)(C)NC(=O)N3)Oc3cc(O)ccc32)cc1 (stereo not drawn) 3.66%, Cc1ccc(S(=O)(=O)c2c(C)cc(C)nc2N2CCCC2)cc1 0.0172%, COC(=O)N/N=C/c1cc(C)n(-c2ccccc2)c1C -10.4%, Cc1nc(SCc2ccc(C(=O)O)cc2)nc2c1CCCC2 -0.442%, O=C(Nc1ccc2c(c1)OCCO2)C1CCN(C(=O)c2ccc(Cl)cc2)CC1 -11.1%, CN(NS(=O)(=O)c1ccccc1)c1nc2ccccc2nc1C(F)(F)F 0.51%, CCC(OC(=O)c1nsc(Cl)c1Cl)C(=O)NCc1cccs1 (stereo not drawn) 2.94%, CCOC(=O)CSc1nnc(-c2c[nH]c3ccccc23)n1CC 27%, COCCCn1c(N)c(-c2nc3ccccc3n2C)c2nc3ccccc3nc21 12%, COc1ccc(C(=O)Nn2c(C)nnc2-n2nc(C)cc2C)cc1OC -1.74%
